The source of these data is the RNAGym collection of RNA variant scans (doi:10.7554/elife.90254).

The source gives no read counts; variants with many changes may rest on few reads.

B1: LINE1-mini (parent)
chain: GGCAGAGCUCAACACAGCGUGGCAAAGUGGCUGUGGCUAGACUGCC

In this data set the parent is B1. Nature of the data set: self-cleavage, relative activity (ratio to wild type); higher = more cleavage; in vitro, sequencing; the parent is a self-cleaving ribozyme.
Take U20A G33A G35U G44C: the self-cleavage worked out at 0.

For U20G A25C G30C G33A G35U G36C, the self-cleavage worked out at 0.16.

G21U A26G G33C C37A G40A: the self-cleavage worked out at 0.05.

With U20G A24U G29A C31G G40A C42A, the self-cleavage amounted to 0.

For G19U G22U C23U, the self-cleavage amounted to 0.29.

As to U20A G36C G40C G44A, the self-cleavage turned out to be 0.02.

With G19U G29A G30A U32A G33C U34A G36C, the self-cleavage came out at 0.04.

For U20A G21C U34A, the self-cleavage is 0.51.

Turning to U20C A25G G35U G44C, the self-cleavage was 0.05.

Turning to U20G G33C C37U G40U U43A, the self-cleavage was determined as 0.

In the case of U20G G29U G36C A41C, the self-cleavage amounted to 0.07.

For U20C C23U G35C G36A U38C G40U, the self-cleavage was 0.01.

G21C G22C C37A A39U: the self-cleavage is 0.03.

As for G19U G22U G40A, the self-cleavage came out at 0.11.

On to G21U G27A A39G C45U, for which the self-cleavage stood at 0.06.

With G21U A41G G44C C46A, the self-cleavage came to 0.05.

Regarding U20G A24G G40U, the self-cleavage amounted to 0.27.

With U20A G21A A24G G40A C46G, the self-cleavage worked out at 0.05.

With G22A A26U G33A, the self-cleavage was found to be 0.28.

For G21U U28G U32C, the self-cleavage stood at 0.08.

G21U A24U C37G A41U C46A: the self-cleavage worked out at 0.02.

On to G21U U32G G35A, for which the self-cleavage amounted to 0.03.

As to G21U A25U G35C, the self-cleavage turned out to be 0.02.

Turning to U20G C23A A24U G35C C42G, the self-cleavage amounted to 0.09.

As to G21A U34A U38G, the self-cleavage is 0.05.

As for U20G C31A U43A, the self-cleavage is 0.02.

Turning to U20A G21C C42A, the self-cleavage came out at 0.06.

In the case of G21A U32C C37A, the self-cleavage worked out at 0.04.

As for G21U A39C C42A, the self-cleavage was 0.05.

Consider U20G C23A C46U, for which the self-cleavage was determined as 0.66.

Regarding G19U G30A C31G G36U, the self-cleavage amounted to 0.07.

With U20A C23U G29A G35C, the self-cleavage stood at 0.34.

For U20A G22A U28A, the self-cleavage turned out to be 0.39.

For G22A C37U C42A, the self-cleavage stood at 0.1.

With U20C G22U C37A C42A, the self-cleavage was 0.03.

Consider U20G A26G C42U, for which the self-cleavage came out at 0.2.

On to U20C G30U U43A, for which the self-cleavage was 0.02.

Turning to G19U G36A G44A, the self-cleavage is 0.23.

For G21U U34G G36C, the self-cleavage turned out to be 0.03.

In the case of G19U G30A G35U C46G, the self-cleavage worked out at 0.07.

Turning to U20G C31U A39U A41G, the self-cleavage turned out to be 0.03.

Consider G19U G40C U43C, for which the self-cleavage was found to be 0.09.

Regarding G21C G30C U32C U34G, the self-cleavage stood at 0.02.

For G22A C23G G30C U34C C46A, the self-cleavage was 0.01.

Regarding G21A G27C A41G, the self-cleavage is 0.16.

Consider U20C U32C U38A U43G, for which the self-cleavage turned out to be 0.

As for U20A A24C G27A U28G U34G, the self-cleavage was found to be 0.02.

Turning to G21A C23G C37U, the self-cleavage was determined as 0.03.

On to G21U C23G U28G, for which the self-cleavage was 0.52.

On to G21U G35U C37A, for which the self-cleavage is 0.05.

Regarding U20A G21A A26G C37U, the self-cleavage came to 0.

In the case of G19U U28G G40A C42U, the self-cleavage was determined as 0.03.

In the case of U20G A24C A26C A39U, the self-cleavage was 0.03.

Consider G22A G27C G36A U38C, for which the self-cleavage was 0.08.

G21C C23U G27C G35A G44C: the self-cleavage was determined as 0.16.

As to G21C G30C C45U C46U, the self-cleavage is 0.41.

On to G21C G27A G29U C37A C42G U43G, for which the self-cleavage is 0.01.

Consider U20G G40C A41C, for which the self-cleavage was 0.03.

In the case of G21U G33U G36A, the self-cleavage came to 0.05.

Turning to U20C A24C U28C G30U C31U G33A, the self-cleavage stood at 0.08.

With G21U C31U U38A G44C, the self-cleavage came to 0.09.

On to U20G A25U C37A C45U, for which the self-cleavage turned out to be 0.02.

In the case of G19U U28A C46A, the self-cleavage came to 0.82.

Consider U20G G27C A41G, for which the self-cleavage amounted to 0.34.

Take U20A C23U G36C: the self-cleavage was found to be 0.02.

As for U20A G44U C46U, the self-cleavage was 0.06.

Take U20C G21A C46U: the self-cleavage is 0.38.

With G21A C23U C31U C37G G44C, the self-cleavage came out at 0.05.

For G21U C23G A41G, the self-cleavage was found to be 0.26.

As to G21C U38C C45U, the self-cleavage is 0.38.

For the variant U20A C42G C46G, the self-cleavage worked out at 0.04.

For U20A G21U C37U C42U U43C, the self-cleavage worked out at 0.01.

In the case of G21U C23A G35U, the self-cleavage worked out at 0.34.

For the variant U20C G29A U32G G33A, the self-cleavage stood at 0.08.

As for G22A A24U C37U A41C, the self-cleavage turned out to be 0.01.

For the variant G21U A26U A41C, the self-cleavage stood at 0.02.

Consider U20C G21C C45U, for which the self-cleavage worked out at 0.64.

In the case of U20G A24C A26U, the self-cleavage stood at 0.05.

As for G21C G22A G36C U38C, the self-cleavage stood at 0.03.

As to U20C A26C G40C, the self-cleavage is 0.02.

As for U20A G22A C46U, the self-cleavage was determined as 0.55.

As for G21U U28C U34A A41U, the self-cleavage came to 0.14.

For the variant U20G C23A A25C, the self-cleavage came to 0.25.

As to G21C A25G U34C, the self-cleavage turned out to be 0.03.

For the variant U20A U38G C46A, the self-cleavage came to 0.01.

G21A G22C G29U G35U G44C C45G C46U: the self-cleavage worked out at 0.01.

On to G19U G33A C37U A41C, for which the self-cleavage was 0.06.

In the case of G21U G22U C23U G30A G44C, the self-cleavage stood at 0.23.

G21A U34G G40A A41U: the self-cleavage stood at 0.02.

For G21C G27U A39G C45G, the self-cleavage is 0.1.

As for G21C U34G G40U, the self-cleavage was 0.05.

As to U20G A25U C37G, the self-cleavage is 0.02.

Turning to G21U U32C C46U, the self-cleavage came out at 0.24.

Regarding U20G C31A C37U, the self-cleavage turned out to be 0.03.

U20G G36A G44U: the self-cleavage is 0.03.

Turning to U20C G21C U43C, the self-cleavage stood at 0.08.

Turning to G21A G22C C23U U34A C37U, the self-cleavage came to 0.04.

As to G19U G27A G30C G33A G36A, the self-cleavage is 0.02.

Turning to G21C G40A C42A, the self-cleavage is 0.04.

G21A G22U G40C: the self-cleavage was 0.21.

On to G21A A26G G30U A41C, for which the self-cleavage came to 0.05.

As for G19U U32C G35C A41U, the self-cleavage was found to be 0.01.

On to G21A C31U C42U, for which the self-cleavage is 0.01.

Consider G21U C23G A25G G44C, for which the self-cleavage turned out to be 0.1.

Consider G21U C23A G30A G33C, for which the self-cleavage was found to be 0.13.

For the variant G19U U38A A39U, the self-cleavage amounted to 0.84.

G21A U32C U43G: the self-cleavage came out at 0.31.

With U20A U32C A39C C42U, the self-cleavage was 0.05.

As for G19U U20C C31A, the self-cleavage worked out at 0.03.

In the case of G21U G36A C42G, the self-cleavage stood at 0.03.

Regarding G21U G22U A24U, the self-cleavage turned out to be 1.53.

G21A G29C C31U G36U: the self-cleavage stood at 0.21.

For G21U U28G G30C, the self-cleavage came out at 1.54.

On to U20C G40C C45U, for which the self-cleavage stood at 0.17.

As for U20A G22U G35U C45A C46A, the self-cleavage was found to be 0.09.

For U20G A26C U43C G44U C45G, the self-cleavage came to 0.05.

For U20C G36U C45U, the self-cleavage amounted to 0.01.

On to G21C G30U G36A, for which the self-cleavage is 0.04.

For the variant U20G G44C C46G, the self-cleavage was determined as 0.03.

Consider G19U G30C A39U, for which the self-cleavage turned out to be 0.05.

Consider G21U G36U C45A, for which the self-cleavage is 0.23.

Regarding G21U G35U U38C G40U, the self-cleavage stood at 0.25.

U20G A26G C46A: the self-cleavage is 0.04.

On to G22A A26C C37A C45A, for which the self-cleavage stood at 0.02.

Take G21C G27A U32G: the self-cleavage amounted to 0.08.

Regarding G19U G33A G40U, the self-cleavage was found to be 0.03.

With G21A G35U C37U A39U, the self-cleavage is 0.06.

Take U20G C23U C45A: the self-cleavage was 0.39.

Regarding U20G C23U C45U, the self-cleavage worked out at 0.77.

For the variant G21A G27U G33U, the self-cleavage was found to be 0.6.

For U20A G21U U32C, the self-cleavage worked out at 0.85.

As for G21A G27U U28C, the self-cleavage is 0.53.

Consider G21A A25C G27U G40C G44C, for which the self-cleavage stood at 0.07.

G19U G22U C31A: the self-cleavage was 0.31.

In the case of G19U G27U G33U G40U C45G, the self-cleavage stood at 0.06.

Regarding G19U U28A G33A G35U U43A C46G, the self-cleavage was 0.02.

Regarding U20G A24G U34C, the self-cleavage came to 0.03.

For the variant U20A G27U G33U, the self-cleavage is 0.02.

For the variant G21C G29A C31G G35A, the self-cleavage is 0.07.

With G21U G33A A41U, the self-cleavage was 0.03.

Take G19U G22U C37U: the self-cleavage was determined as 0.02.

With G21C A24C A25G C37U, the self-cleavage was 0.02.

On to G21C C23G G27C G29U G33U A41G C45U, for which the self-cleavage was found to be 0.12.

Take G21U U28C G30U G33U: the self-cleavage was 0.85.

G19U G33U G40C: the self-cleavage was found to be 0.04.

Regarding U20G G36C U43C, the self-cleavage came out at 0.04.

On to G19U G30A G44C, for which the self-cleavage stood at 0.31.

With G21U G30U U38C, the self-cleavage came to 0.72.

As for U20A G40U A41U, the self-cleavage came out at 0.1.

On to G21C G33A C42A, for which the self-cleavage is 0.04.

For the variant U20C G27U G40A, the self-cleavage turned out to be 0.07.

In the case of G21U G29U C37G, the self-cleavage was found to be 0.01.

Consider U20A A26U U32A, for which the self-cleavage was determined as 0.09.

On to G21U G29C C45A, for which the self-cleavage is 0.48.

With U20G G27U G29A, the self-cleavage came out at 0.25.

For G21C A25G G30A, the self-cleavage was 0.73.

For G21U G22U U43A, the self-cleavage worked out at 0.02.

As to U20G G27U U43C, the self-cleavage stood at 0.13.

Consider U20C G30U C46A, for which the self-cleavage was determined as 0.12.

Regarding U20G G29C G35U C42G, the self-cleavage turned out to be 0.02.

With G22A A25U U32A G35C U38G, the self-cleavage is 0.01.

In the case of G19U G36C C46A, the self-cleavage is 0.02.

With U20G G30C U34C C42U, the self-cleavage stood at 0.02.

With U20A C23A G36A, the self-cleavage came out at 0.06.

Turning to G22A A25G U34C, the self-cleavage worked out at 0.81.

In the case of U20C G30A G44A, the self-cleavage was found to be 0.18.

As for U20C C23U C42G, the self-cleavage was 0.04.
